Shown are siRNA guide strands that differ only in the seed, positions 2 to 7.
What was measured:
[1] = test system: H4; assay: cell viability relative to siNT1 (ATP content); H4 human neuroglioma and GL261 mouse glioma; higher = less toxic; conditions: siRNA concentration 10 nM; 96 h; human
[2] = test system: GL261; assay: as above; conditions: siRNA concentration 25 nM; 96 h; mouse
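Also: cells reverse transfected with siRNA duplexes via lipid reagent, ATP read by luminescence, triplicate wells, values scaled to mean viability with non-targeting control siNT1.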

Sequence | cell viability [1] [%] | cell viability [2] [%]
UUGCAAGACAUGUAAACCA | 116 | 54.3
UUGCAAUACAUGUAAACCA | 63.3 | 53.8
UUGCACAACAUGUAAACCA | 89.9 | 24.8
UUGCACCACAUGUAAACCA | 41.1 | 39
UUGCACGACAUGUAAACCA | 97.6 | 39.5
UUGCACUACAUGUAAACCA | 70.7 | 20.3
UUGCAGAACAUGUAAACCA | 59.1 | 30.6
UUGCAGCACAUGUAAACCA | 47.6 | 12.2
UUGCAGGACAUGUAAACCA | 10.9 | 35.6
UUGCAGUACAUGUAAACCA | 53.3 | 21.6
UUGCAUAACAUGUAAACCA | 93.1 | 62.1
UUGCAUCACAUGUAAACCA | 55.6 | 32.1
UUGCAUGACAUGUAAACCA | 60.2 | 32.1
UUGCAUUACAUGUAAACCA | 81.1 | 56.1
UUGCCAAACAUGUAAACCA | 61.3 | 46.2
UUGCCACACAUGUAAACCA | 38.8 | 18.3
UUGCCAGACAUGUAAACCA | 75.2 | 50.7
UUGCCAUACAUGUAAACCA | 29.7 | 52.8
UUGCCCAACAUGUAAACCA | 65.1 | 49.3
UUGCCCCACAUGUAAACCA | 61.3 | 30.1
UUGCCCGACAUGUAAACCA | 79.5 | 46.8
UUGCCCUACAUGUAAACCA | 41.2 | 27.3
UUGCCGAACAUGUAAACCA | 64.6 | 39
UUGCCGCACAUGUAAACCA | 53 | 23

Sequence | cell viability [1] [%] | cell viability [2] [%]
UUGCCGGACAUGUAAACCA | 35.2 | 36.7
UUGCCGUACAUGUAAACCA | 57.8 | 26
UUGCCUAACAUGUAAACCA | 93.2 | 49
UUGCCUCACAUGUAAACCA | 52.4 | 50.9
UUGCCUGACAUGUAAACCA | 21 | 53.7
UUGCCUUACAUGUAAACCA | 29 | 33
UUGCGAAACAUGUAAACCA | 98.7 | 55.1
UUGCGACACAUGUAAACCA | 51.8 | 22
UUGCGAGACAUGUAAACCA | 80.1 | 78.8
UUGCGAUACAUGUAAACCA | 88.8 | 33.9
UUGCGCAACAUGUAAACCA | 96.3 | 63.3
UUGCGCCACAUGUAAACCA | 46.1 | 19.7
UUGCGCGACAUGUAAACCA | 70.8 | 60.8
UUGCGCUACAUGUAAACCA | 98.6 | 50.5
UUGCGGAACAUGUAAACCA | 77.5 | 44.7
UUGCGGCACAUGUAAACCA | 60.3 | 25.3
UUGCGGGACAUGUAAACCA | 73.8 | 41.5
UUGCGGUACAUGUAAACCA | 53.3 | 28.6
UUGCGUAACAUGUAAACCA | 106 | 68.7
UUGCGUCACAUGUAAACCA | 82.6 | 35.5
UUGCGUGACAUGUAAACCA | 77.1 | 45.9
UUGCGUUACAUGUAAACCA | 79.2 | 49.1
UUGCUAAACAUGUAAACCA | 87.7 | 51.9
UUGCUACACAUGUAAACCA | 13 | 39.5

Sequence | cell viability [1] [%] | cell viability [2] [%]
UUGCUAGACAUGUAAACCA | 62.7 | 62.9
UUGCUAUACAUGUAAACCA | 47.9 | 52.3
UUGCUCAACAUGUAAACCA | 78.8 | 49.9
UUGCUCCACAUGUAAACCA | 33.6 | 30.3
UUGCUCGACAUGUAAACCA | 104 | 49.4
UUGCUCUACAUGUAAACCA | 56.7 | 43.9
UUGCUGAACAUGUAAACCA | 61.6 | 40.6
UUGCUGCACAUGUAAACCA | 55.3 | 20.7
UUGCUGGACAUGUAAACCA | 47.3 | 41.5
UUGCUGUACAUGUAAACCA | 62.3 | 19.5
UUGCUUAACAUGUAAACCA | 101 | 86.7
UUGCUUCACAUGUAAACCA | 50.4 | 46.9
UUGCUUGACAUGUAAACCA | 91.3 | 53.8
UUGCUUUACAUGUAAACCA | 101 | 64.9
UUGGAAAACAUGUAAACCA | 93.3 | 51.5
UUGGAACACAUGUAAACCA | 80.9 | 37.5
UUGGAAGACAUGUAAACCA | 77.6 | 49.7
UUGGAAUACAUGUAAACCA | 63.6 | 55.6
UUGGACAACAUGUAAACCA | 53.7 | 30.6
UUGGACCACAUGUAAACCA | 63.5 | 42.8
UUGGACGACAUGUAAACCA | 83.1 | 38.9
UUGGACUACAUGUAAACCA | 23.8 | 19.6
UUGGAGAACAUGUAAACCA | 50.2 | 50.5
UUGGAGCACAUGUAAACCA | 16.6 | 20.6

Sequence | cell viability [1] [%] | cell viability [2] [%]
UUGGAGGACAUGUAAACCA | 33.2 | 30.6
UUGGAGUACAUGUAAACCA | 65.1 | 44.9
UUGGAUAACAUGUAAACCA | 84.2 | 81.1
UUGGAUCACAUGUAAACCA | 37.3 | 38.8
UUGGAUGACAUGUAAACCA | 76 | 58.2
UUGGAUUACAUGUAAACCA | 93.1 | 59.5
UUGGCAAACAUGUAAACCA | 73.5 | 39.7
UUGGCACACAUGUAAACCA | 50.8 | 27.9
UUGGCAGACAUGUAAACCA | 72 | 21.4
UUGGCAUACAUGUAAACCA | 89.4 | 22.8
UUGGCCAACAUGUAAACCA | 48.5 | 83.7
UUGGCCCACAUGUAAACCA | 50.6 | 51.4
UUGGCCGACAUGUAAACCA | 54.6 | 76.8
UUGGCCUACAUGUAAACCA | 45.4 | 71.4
UUGGCGAACAUGUAAACCA | 93.3 | 47
UUGGCGCACAUGUAAACCA | 78.1 | 61.2
UUGGCGGACAUGUAAACCA | 17.5 | 38.4
UUGGCGUACAUGUAAACCA | 71.7 | 38.5
UUGGCUAACAUGUAAACCA | 95.2 | 36.1
UUGGCUCACAUGUAAACCA | 67.3 | 26.3
UUGGCUGACAUGUAAACCA | 89 | 57.2
UUGGCUUACAUGUAAACCA | 100 | 64.5
UUGGGAAACAUGUAAACCA | 93.2 | 38.3
UUGGGACACAUGUAAACCA | 55.5 | 31.5

Sequence | cell viability [1] [%] | cell viability [2] [%]
UUGGGAGACAUGUAAACCA | 59.9 | 26
UUGGGAUACAUGUAAACCA | 62.4 | 24.8
UUGGGCAACAUGUAAACCA | 80 | 49
UUGGGCCACAUGUAAACCA | 28.3 | 31.2
UUGGGCGACAUGUAAACCA | 31.6 | 27.5
UUGGGCUACAUGUAAACCA | 24.1 | 20
UUGGGGAACAUGUAAACCA | 33.7 | 47.2
UUGGGGCACAUGUAAACCA | 29.6 | 13.6
UUGGGGGACAUGUAAACCA | 6.92 | 9.7
UUGGGGUACAUGUAAACCA | 29.6 | 29.2
UUGGGUAACAUGUAAACCA | 76.3 | 39.9
UUGGGUCACAUGUAAACCA | 54.2 | 10.3
UUGGGUGACAUGUAAACCA | 19.6 | 29.7
UUGGGUUACAUGUAAACCA | 60.2 | 52.2
UUGGUAAACAUGUAAACCA | 76.2 | 53.1
UUGGUACACAUGUAAACCA | 57.8 | 32.8
UUGGUAGACAUGUAAACCA | 42.2 | 35.2
UUGGUAUACAUGUAAACCA | 57.3 | 50.1
UUGGUCAACAUGUAAACCA | 62.4 | 28.9
UUGGUCCACAUGUAAACCA | 52.8 | 48.4
UUGGUCGACAUGUAAACCA | 75.3 | 27
UUGGUCUACAUGUAAACCA | 52.7 | 47.7
